Source: US20240415975A1 (ABTIS, published 2024)

Assays:
[1] = molecular target: Claudin 18.2 protein (CLDN18.2), expressed on cells (UniProt P56856); experiment: cell-based ELISA on MIA PaCa-2-CLDN18.2 cells; regression in GraphPad Prism (column labelled Kd, text says EC50)
[2] = molecular target: Claudin 18.2 protein (CLDN18.2), expressed on cells (UniProt P56856); experiment: cell-based ELISA on SNU601 cells (CLDN18.2+); regression in GraphPad Prism (column labelled Kd, text says EC50)

## Zolbetuximab (antibody-B)
[1]
  Kd: 0.045 µg/mL and 0.3 nM [lines of one column]
[2]
  Kd: 0.032 µg/mL and 0.213 nM [lines of one column]

For part of its entries the source gives two or more results. This is not the full list of results. An entry can have further records. Results that share an entry appear to be repeats (runs, samples, wells or individuals).
